According to PubChem BioAssay AID2546 (National Center for Advancing Translational Sciences (NCATS), 2010):
The campaign covered roughly 310,000 compounds. About 11,000 (3.5%) were called active. The shares of active, inactive and inconclusive entries below differ from those in the screen. Calls come from the whole dose curve; as a rule, active = well fitted inhibition curve with a large enough effect; inconclusive = small, poorly fitted or top-dose-only effect, or effect the other way; inactive = flat fitted curve, though single readings scatter. Potencies of inconclusive entries are left out as doubtful fits. A structure can be active in one record and inactive in another.

Experiment: VP16 counterscreen qHTS for inhibitors of ROR gamma transcriptional activity;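 note: Gal4-VP16 expression switched on by copper sulfate through the metallothionein promoter; nearly all actives have a fitted effect of over 50% in size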
Conditions: Drosophila S2 Gal4-VP16 UAS-luciferase, luminescence, 20 h; series mostly up to 53.6 µM
Potency is the fitted concentration of half-maximal effect; tags give direction and shape of the fitted curve.

SMILES | Potency
CCN1C/C(=C/c2cccc([N+](=O)[O-])c2)C(=O)/C(=C/c2cccc([N+](=O)[O-])c2)C1 | active: 3.55 µM
Cc1nc2ccc(NC(=O)c3ccc(Cl)c(S(=O)(=O)N(C)c4ccccc4)c3)cc2s1 | inconclusive [inhibitor, single point]
COc1ccc(-c2nnc3n2N=C(c2ccccc2OC)CS3)cc1OC | inconclusive [inhibitor, single point]
CC(C)n1nc(C(=O)Nc2nc3ccccc3[nH]2)c2ccccc2c1=O | inconclusive [inhibitor, single point]
Cc1ccc(C2=NS(=O)(=O)N(C)C(C(=O)Nc3ccc4c(c3)OCO4)=C2)cc1 | inconclusive [inhibitor, single point]
Clc1ccc2nc(CSc3nnc4ccccn34)cn2c1 | inconclusive [inhibitor, single point]
CN1CCN(c2ccc(NC(=O)c3ccc([N+](=O)[O-])o3)cc2Cl)CC1 | inconclusive [inhibitor, single point]
CCC(CC)C(=O)N1CC(=O)Nc2ccc(F)cc2C1c1ccc(F)cc1 (centres undefined) | inactive
Cc1ccc(C(=O)Nc2ccc3c(c2)OCO3)o1 | inactive
Cc1cccc(N2C(=N)SCC2=O)c1C | inactive
C=CCNc1nc2c(c(=O)n(C)c(=O)n2C)n1Cc1ccc(F)cc1 | active: 7.08 µM
O=C(c1ccccn1)N(c1ccccc1)C1(C(=O)NC2CCCCC2)CCCCC1 | inactive
COc1cc(/C=C2\C(=O)N(CCC#N)N=C2C)ccc1OCC(=O)Nc1ccccc1 | inconclusive [inhibitor, single point]
COc1ccccc1OCc1ccc(C(=O)Nc2ccncc2)o1 | inconclusive [inhibitor, partial curve]
O=C(NC(=S)NCCO)c1cn(-c2ccccc2)nc1-c1ccccc1 | inconclusive [inhibitor, single point]
CC1=NOC(=O)/C1=C/c1ccc(-c2ccc(Cl)cc2)o1 | inconclusive [inhibitor, single point]
O=C1c2ccccc2C(=O)C1c1ccc(Br)cc1 | inactive
Cc1ccc(C#N)c(SCc2nnc(-c3ccc(Cl)cc3)o2)n1 | inconclusive [inhibitor, partial curve]
CCc1ccc(N(C(=O)Cn2nnc(-c3ccccc3)n2)C(C(=O)NC2CCCCC2)c2ccccn2)cc1 (centres undefined) | inconclusive [activator, single point]
CC1CN(C(=O)/C=C/c2ccc([N+](=O)[O-])s2)CC(C)O1 (centres undefined) | inconclusive [inhibitor, single point]
Cc1ccnc(NCc2cccc3ccccc23)c1 | inconclusive [inhibitor, single point]
CS(=O)(=O)N1CCC(C(=O)N2CCN(c3ccccc3F)CC2)CC1 | inactive
N#Cc1c(-c2ccc(F)cc2)ccnc1N1CCOCC1 | inconclusive [activator, single point]
O=C(/C=C/c1ccco1)NC(=S)Nc1ccc(C(=O)O)cc1 | inactive
CCCN1CN(Cc2ccco2)c2nc3ccccc3n2C1 | inactive
CCCn1nnc(NC(=S)NC(=O)CC)n1 | active: 10 µM
Cc1cc(=O)[nH]c(N/N=C/c2c(C)nn(-c3ccccc3Cl)c2Cl)n1 | inconclusive [inhibitor, single point]

SMILES | Potency
CCNC(=S)NNC(=O)c1cc(-c2cccc(OCC)c2)nc2ccccc12 | inconclusive [inhibitor, partial curve]
O=C(CN1CCN(c2nc(-c3ccccc3)cs2)CC1)NNC(=O)c1ccc(Br)cc1 | inactive
Oc1ccccc1CNCCCN1CCOCC1 | inactive
CCOc1ccc(-c2nc(N)ncc2-c2ccc(Cl)cc2)c(O)c1 | inconclusive [inhibitor, single point]
COc1ccc(-c2c(C#N)c(SCC(=O)c3cc4ccccc4oc3=O)nc(C)c2C(=O)Nc2ccccc2)cc1 | inconclusive [inhibitor, partial curve]
COc1cc2c(cc1NC(=O)C(C)Sc1ccc(NC(C)=O)cc1)oc1ccccc12 (centres undefined) | inactive
Fc1ccc(Oc2nc(-c3ccccc3)nnc2C(F)(F)F)cc1 | inactive
COCCSc1nnc(NC(=O)c2ccco2)s1 | inactive
O=c1c2c([nH]c3ccccc13)CCCC2 | inconclusive [inhibitor, single point]
COc1cc(CN2CCCCC2C(=O)Nc2ccc(Oc3ccccc3)nc2)ccc1O (centres undefined) | inconclusive [activator, single point]
CCCOCc1ccc(O)c2ncccc12 | active: 3.55 µM
O=S(=O)(NCCC(c1ccc(F)cc1)c1ccco1)c1ccccc1 (centres undefined) | inconclusive [activator, single point]
Cc1ccccc1Nc1cc(C(=O)NCc2ccco2)c2ccccc2n1 | inactive
CCOC(=O)CSc1nc2ccccc2c(=O)n1NC(=O)c1ccccc1 | inactive
CCCNc1nc2ccccc2c(=O)[nH]1 | inactive
CC(C)C[C@H](NC(=O)c1[nH]cnc1C(=O)N[C@H](C)c1ccccc1)C(=O)OCc1ccccc1 | active: 5.01 µM
Cc1ccc(S(=O)(=O)Nc2ccccc2C(=O)Nc2nc(-c3ccc(F)cc3)cs2)cc1 | inactive
O=C(CCl)Nc1cccc(Oc2cnccn2)c1 | inconclusive [inhibitor, single point]
CCOc1ccccc1/C=N/Nc1nc2ccccc2o1 | active: 7.08 µM
S=c1[nH]cc(Cc2ccccc2)s1 | inconclusive [inhibitor, single point]
O=c1c(Cc2ccc(Cl)cc2Cl)c(O)ccn1CC(F)(F)F | inconclusive [inhibitor, single point]
CCCCNC(=O)C1CCCN(S(=O)(=O)c2c(C)noc2/C=C/c2cccs2)C1 (centres undefined) | inconclusive [inhibitor, partial curve]
Cc1cccc(NC(=S)NCC(C)CSc2ccc(Cl)cc2)c1 (centres undefined) | active: 5.62 µM
FC(F)(F)c1ccccc1-c1nccc(-n2ccnc2)n1 | inconclusive [inhibitor, single point]
O=C(COC(=O)c1cc[n+]([O-])cc1)Nc1ccc(Cl)cc1[N+](=O)[O-] | inactive
Cc1cccc(-n2c(SCN3C(=O)c4ccccc4C3=O)nc3ccccc3c2=O)c1 | inactive
O=C(C[n+]1cc(-c2ccccc2)n2c1CCC2)Nc1nc(-c2ccccc2)cs1 | inconclusive [inhibitor, single point]

SMILES | Potency
CCOc1cc(/C=C2\CCC/C(=C\c3cc(Cl)c(O)c(OCC)c3)C2=O)cc(Cl)c1O | active: 11.2 µM
CN1C(=O)C(Cc2c[nH]c3ccccc23)NC1=S (centres undefined) | inconclusive [inhibitor, single point]
CC[n+]1c(/C=C(/C)SC)sc2ccccc21 | inactive
COc1ccc(C(=O)C2CCCN(S(=O)(=O)c3ccc(C(C)=O)cc3)C2)c(C)c1 (centres undefined) | inconclusive [inhibitor, single point]
CCN(CC(=O)Nc1cc(C)nn1-c1nc(C)cc(C)n1)Cc1ccccc1 | active: 6.31 µM
C=CCNC(=S)NNC(=O)c1cccn(Cc2ccc(Cl)c(Cl)c2)c1=O | inconclusive [inhibitor, partial curve]
CCCCN(CCCC)S(=O)(=O)c1ccc(C(=O)Nc2nnc(CSC)o2)cc1 | active: 0.891 µM
CCOc1ccc(NC(=O)c2ccc(NC(=O)COC(=O)Cc3ccc(OC)cc3)cc2)cc1 | inactive
CC(C)c1nc2ccccn2c1NC1CCCCC1 | inconclusive [inhibitor, single point]
COCCOC(=O)c1[nH]c2c(c1C)C(=O)CC(c1cccs1)C2 (centres undefined) | inactive
COc1ccc(OC)c(C2C(C#N)=C(N)N(N(C)C)C3=C2C(=O)CCC3)c1 (centres undefined) | inactive
Cn1nnnc1SCC(=O)N(C1CCCCC1)C1CCCCC1 | inactive
COc1ccc2nc3c(c(-c4ccccc4)c2c1)CCC3 | active: 17.8 µM
CC(C)(C#CCN1CCCCC1)OCCOC(c1ccccc1)c1ccccc1 | inconclusive [inhibitor, single point]
Cc1ccc(S(=O)(=O)Nc2cccc3c2CCCC3)cc1 | inactive
CCCCN1CNC(=S)N(c2ccccc2OCC)C1 | active: 14.1 µM
Cc1cc(C(=O)Nc2sc3c(c2C#N)CCC3)no1 | inconclusive [inhibitor, single point]
CC(C)c1ccc(/C=N/n2c(-c3ccccc3)n[nH]c2=S)cc1 | active: 3.16 µM
COC(=O)C1=C(C)Nc2[nH]c(=S)[nH]c(=O)c2C1c1ccc(O)cc1 (centres undefined) | inactive
CCCCCNC(=O)CCc1ccccc1 | inconclusive [activator, single point]
Cc1cccc(N2CCN(C(=S)NCCc3ccccc3)CC2)c1C | inconclusive [inhibitor, full curve, poor fit]
Cc1cc(OCCCCOc2ccc(C#N)cc2)ccc1[N+](=O)[O-] | inconclusive [inhibitor, single point]
Cc1csc(NC(=O)c2ccc(Br)s2)n1 | inconclusive [inhibitor, full curve]
COc1ccc(-n2c(=O)c3c4c(sc3n3c(=S)[nH]nc23)CCCC4)cc1 | active: 12.6 µM
COc1ccc(C(=O)NC(=S)Nc2ccccc2N2CCOCC2)cc1Br | active: 6.31 µM
